According to PubChem BioAssay AID488969 (Vanderbilt High Throughput Screening Facility, 2010):
Whole data set: some 110,000 compounds, median “z-score” near -0.1, cut for the highest 2% near 2. The list shows a part of the results.

These compounds were tested against Metabotropic glutamate receptor 8 (Rattus norvegicus) (UniProt P70579) (assay: rat mGluR8 modulators via GIRK flux, primary screen, cell-based, thallium flux, HTS (AID 488969)). Conditions: HEK293 rat mGluR8, GIRK (G protein-gated inwardly rectifying potassium channel) thallium flux, FluoZin2; at 10 µM; stronger effect = higher value; submaximal glutamate (EC20) added with thallium.
Chain of UniProt P70579 (P70579 whole entry, looked up): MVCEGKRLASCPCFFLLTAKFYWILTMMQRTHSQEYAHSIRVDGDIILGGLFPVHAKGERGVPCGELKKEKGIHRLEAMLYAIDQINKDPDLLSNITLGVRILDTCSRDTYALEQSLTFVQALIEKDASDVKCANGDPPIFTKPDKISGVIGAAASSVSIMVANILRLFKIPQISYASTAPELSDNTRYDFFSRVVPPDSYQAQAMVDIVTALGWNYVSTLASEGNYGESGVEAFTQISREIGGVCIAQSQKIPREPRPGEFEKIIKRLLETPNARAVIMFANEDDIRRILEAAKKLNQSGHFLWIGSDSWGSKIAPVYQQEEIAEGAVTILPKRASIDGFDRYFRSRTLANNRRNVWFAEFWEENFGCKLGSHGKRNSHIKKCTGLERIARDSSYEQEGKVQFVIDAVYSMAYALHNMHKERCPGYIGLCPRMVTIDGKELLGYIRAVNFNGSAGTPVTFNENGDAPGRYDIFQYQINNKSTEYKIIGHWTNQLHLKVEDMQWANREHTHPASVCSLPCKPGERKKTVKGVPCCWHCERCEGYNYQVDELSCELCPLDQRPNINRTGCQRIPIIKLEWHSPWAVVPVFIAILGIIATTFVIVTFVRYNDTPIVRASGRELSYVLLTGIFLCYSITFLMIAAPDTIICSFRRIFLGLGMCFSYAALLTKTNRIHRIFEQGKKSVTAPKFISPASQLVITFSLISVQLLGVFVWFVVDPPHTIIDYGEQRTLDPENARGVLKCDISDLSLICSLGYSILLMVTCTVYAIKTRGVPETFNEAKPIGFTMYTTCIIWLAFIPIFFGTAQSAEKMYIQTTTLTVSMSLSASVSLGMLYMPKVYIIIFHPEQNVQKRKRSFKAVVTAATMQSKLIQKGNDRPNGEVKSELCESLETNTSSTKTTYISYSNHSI
Compound `CCC(OC(=O)c1nsc(Cl)c1Cl)C(=O)NCc1cccs1` (configuration not stated) has a z-score of 0.3.
`CN(NS(=O)(=O)c1ccccc1)c1nc2ccccc2nc1C(F)(F)F` gave a z-score of -0.586.
For `CCC(C)N1C(=O)/C(=C/c2c(NCCCOC(C)C)nc3c(C)cccn3c2=O)SC1=S` (configuration not stated), the z-score was 0.0924.
With `COc1ccc(/C=C/C(=O)NCC(=O)N/N=C/c2cc(Br)ccc2OC)cc1` the z-score was 0.158.
`COc1ccc(NC(=O)CCCN2C(=O)C3C4C=CC(C4)C3C2=O)c(OC)c1` (configuration not stated) was tested, and the z-score was -0.781.
`CCc1nc2scc(-c3ccccc3)c2c(=O)n1N` showed a z-score of -0.0795.
`Cc1cccc(N2C(=O)SC(SC(=Nc3ccccc3)Nc3ccccc3)C2=O)c1` (configuration not stated) gave a z-score of 0.0359.
`O=C(Nc1ccc2c(c1)OCCO2)C1CCN(C(=O)c2ccc(Cl)cc2)CC1` showed a z-score of 0.135.
`CCN1CCC2(CC1)N=C(c1ccc(F)cc1)C(=S)N2C(=O)c1ccc(C(C)(C)C)cc1` gave a z-score of 0.0268.
`COc1ccccc1NC(=O)c1cn(C)c(=O)c2cc(OC)c(OC)cc12` was tested, and the z-score was 0.0576.
Work on `CC(C)C(NC(=O)c1ccccc1NC(=O)c1ccco1)C(=O)O` (configuration not stated) yielded a z-score of -0.744.
`Cc1ccc(/C=N/NC(=O)CNC(=O)COc2ccccc2)cc1` showed a z-score of -0.0148.
`COc1ccccc1C/C(N)=N/OC(=O)COc1ccccc1C` gave a z-score of -0.177.
`Cn1c(Oc2ccccc2)c(C=O)c2ccccc21` showed a z-score of -0.767.
With `COC(=O)c1ccccc1NC(=O)CN(Cc1ccc(Cl)cc1)S(C)(=O)=O` the z-score was -0.28.
In the case of `CCOc1cc(NC(=S)Nc2ccccc2OC)c(OCC)cc1NC(=O)c1ccccc1C`, the z-score is reported as -0.0989.
In the case of `CCOc1ccc2c(=O)c(Oc3ccccc3)c(C)oc2c1`, the z-score is reported as -0.244.
`COCCNc1ncnc2nc[nH]c12` was tested, and the z-score was 0.619.
Work on `Cc1nn(C)c(C)c1CN(C)C(=O)c1cc2n(n1)C(C(F)(F)F)CC(c1cccs1)N2` (configuration not stated) yielded a z-score of 0.0534.
`COc1ccc(Cl)cc1NC(=O)c1ccccc1C` showed a z-score of 0.191.
With `COCC(=O)Nc1nnc(C2CCCCC2)s1` the z-score was -0.188.
Compound `COc1cc(C(=O)NCc2ccc(C)cc2)ccc1OCc1c(C)noc1C` has a z-score of -0.694.
With `COC(=O)C1(CCSC)NC(c2ccccc2OC)C2C(=O)N(C)C(=O)C21` (configuration not stated) the z-score was -0.0404.
With `CN(C)C(=S)SCC(=O)Nc1ccc(Cl)cc1Cl` the z-score was -0.337.
With `Cc1cc(NC(=O)CSc2nnc(Nc3ccccc3)s2)no1` the z-score was -0.129.
With `Cc1cc2c(c(=O)n1CC1CCCO1)C(c1ccco1)C(C#N)=C(N)O2` (configuration not stated) the z-score was 0.993.
With `CCOC(=O)c1c(NC(=S)Nc2cc([N+](=O)[O-])ccc2OC)sc2c1CCCCC2` the z-score was -0.109.
`Cc1ccc(-n2nc3ccc(NC(=S)NC(=O)/C=C/c4ccco4)cc3n2)cc1` showed a z-score of -0.125.
In the case of `CC(=O)/C(C#N)=C1\NC(=O)C(Cc2ccccc2)S1` (configuration not stated), the z-score is reported as -0.5.
`CCOc1ccc(NC(=O)CC2C(=O)N(c3ccccc3)C(=S)N2Cc2ccccn2)cc1` (configuration not stated) gave a z-score of -0.194.
With `CCOC(=O)c1cc(-c2ccc(Cl)s2)nc2c1c(C)nn2C` the z-score was 0.0139.
For `CCOC(=O)C1CCN(S(=O)(=O)c2ccc(OCC(=O)OC)cc2)CC1`, the z-score was 0.845.
With `COc1ccc2occ(C(C)=O)c2c1` the z-score was -1.2.
`Cc1cc(Cl)ccc1OCC(=O)N1CC(C)CC(C)C1` (configuration not stated) gave a z-score of -0.412.
Work on `CC(=O)c1ccccc1OCCn1nnc(-c2ccc(C)cc2)n1` yielded a z-score of -1.03.
`Cc1cc(Cl)ccc1OCCCC(=O)N1CCN(C)CC1` showed a z-score of -0.88.
With `CCNC(=S)NCc1ccco1` the z-score was 0.0142.
In the case of `COc1cccc(N2C(=O)C(O)=C(C(C)=O)C2c2ccc(OC)c(OC)c2)c1` (configuration not stated), the z-score is reported as -0.0218.
In the case of `CN(C)c1[nH]c(=O)c(C#N)c2c1CCN2Cc1ccccc1`, the z-score is reported as 0.289.
`CCOC(=O)c1cc2cc(OC)ccc2nc1C` gave a z-score of -0.561.
Compound `Cc1nn(Cc2ccccc2Cl)c(C)c1C(=O)Nc1nnc(C2CC2)s1` has a z-score of -0.583.
`O=C(C1CCCN(S(=O)(=O)c2ccccc2[N+](=O)[O-])C1)N1CCCC1` (configuration not stated) showed a z-score of 0.116.
For `O=C(O)c1cc2ccc3ccccc3c2oc1=O`, the z-score was -0.0814.
`C=C(c1ccc(OCCO)cc1)c1ccc(OCCO)cc1` gave a z-score of 0.26.
`COc1ccccc1NC=C1C(=O)OC(C)(C)OC1=O` was tested, and the z-score was -0.201.
With `COC(=O)CSc1nnnn1-c1cccc2ccccc12` the z-score was 0.0336.
Work on `CC(=O)NC(Cc1ccc(C)cc1)C(=O)NC1CCN(c2ncccc2[N+](=O)[O-])CC1` (configuration not stated) yielded a z-score of -0.795.
Compound `Cc1cc(C)n(CCCNC(=O)c2ccc(S(=O)(=O)NCc3ccco3)cc2)n1` has a z-score of -0.419.
With `O=C(CCN1C(=O)c2ccncc2C1=O)NCc1ccc(Cl)cc1` the z-score was -0.16.
For `Nc1ccc(CN2CCCCCC2)cc1`, the z-score was 0.0779.
For `COc1cccc(NC(=O)/C=C/c2ccccc2[N+](=O)[O-])c1`, the z-score was -0.159.
With `O=C(c1oc2ccccc2c1N1CCCCC1)N1CCCCC1` the z-score was -0.448.
Work on `Cn1c(NC(=O)c2ccccc2C(F)(F)F)cc(=O)n(C)c1=O` yielded a z-score of -0.131.
In the case of `Cc1ccc(-n2ncc3c(SCc4ccccc4)ncnc32)cc1`, the z-score is reported as 2.51.
For `Cc1ccc(S(=O)(=O)N(C)Cc2ccc(C(=O)NN=C3C4CC5CC(C4)CC3C5)cc2)cc1`, the z-score was -0.0811.
In the case of `CC1CC(=O)Nc2ccccc2N1S(=O)(=O)c1ccccc1` (configuration not stated), the z-score is reported as -0.117.
In the case of `Cc1cc(C)cc(N(C(=O)Cc2cccs2)C(C(=O)NC2CCCC2)c2ccc(C)o2)c1` (configuration not stated), the z-score is reported as 0.227.
For `CCOC(=O)C1=C(O)/C(=C/c2ccc(OCC(=O)O)c(OC)c2)SC1=Nc1ccc(OCC)cc1`, the z-score was -0.258.
Work on `Cn1c(=NCC(O)COc2ccccc2)sc2ccccc21` (configuration not stated) yielded a z-score of 2.27.
For `NS(=O)(=O)c1cc(C(=O)OCC(=O)NC2CC2)ccc1Cl`, the z-score was -0.103.
Work on `COc1ccc(-c2cn3cc(C)ccc3n2)cc1Br` yielded a z-score of -0.219.
With `CC(=O)c1ccc(Nc2ncnc3c2oc2ccccc23)cc1` the z-score was 0.117.
Work on `Cn1c(=O)[nH]c(=O)c2c1nc(N1CCOCC1)n2CC(O)COc1ccccc1` (configuration not stated) yielded a z-score of -0.1.
For `Cc1sc(NC(=O)CCl)c(C(=O)c2ccccc2)c1C`, the z-score was -0.412.
For `COC(=O)c1cc2oc(C)cc2n1CC(=O)Nc1cc(C)cc(C)c1`, the z-score was -0.162.
In the case of `COc1ccc(/C=N/n2c(=S)n(C)c3ccccc32)cc1OC`, the z-score is reported as 0.103.
`COC(=O)N/N=C/c1cc(C)n(-c2ccccc2)c1C` showed a z-score of -0.625.
`COc1cc(Cl)c(C)cc1NC(=O)CSCC#N` was tested, and the z-score was -0.0531.
Work on `CCOC(=O)CCCCC(=O)c1[nH]c(=O)[nH]c1Cn1ccnc1` yielded a z-score of -0.187.
`CC(C)CCNC(=O)C(Cc1ccccc1)NS(=O)(=O)c1ccc2c(c1)c(=O)n(C)c(=O)n2C` (configuration not stated) gave a z-score of -0.042.
`COc1ccccc1NC(=O)CSc1nnc(-c2ccoc2C)n1CC1CCCO1` (configuration not stated) was tested, and the z-score was 0.0563.
`COc1ccccc1N1CCN(C(CNS(=O)(=O)c2ccccc2)c2cccnc2)CC1` (configuration not stated) was tested, and the z-score was 0.243.
